From the supplement of paper PMC12217912 come the findings set out here.

This is one part of the list. Sequences were assembled here from the parent chain. Values near 0.05 are background.

B1: TEV protease; numbered along this chain (parent)
chain: MGESLFKGPRDYNPISSSICHLTNESDGHTTSLYGIGFGPFIITNKHLFRRNNGTLVVQSLHGVFKVKDTTTLQQHLVDGRDMIIIRMPKDFPPFPQKLKFREPQREERICLVTTNFQTKSMSSMVSDTSCTFPSGDGIFWKHWIQTKDGQCGSPLVSTRDGFIVGIHSASNFTNTNNYFTSVPKNFMELLTNQEAQQWVSGWRLNADSVLWGGHKVFMVKPEEPFQPVKEATQL

Variants of B1 are the subject of this experiment. Description: raw area under fraction-flipped curve 0-4 h after induction (AUC4h, not background-subtracted), DNA-recorder readout of cleavage of the substrate (dimensionless); higher = more cleavage of the substrate by the protease variant. As to conditions: temperature: 34 °C; time window: 0-4 h after rhamnose induction. The method, then: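 In vivo DNA recorder in E. coli TOP10(DE3) ΔrhaA at 34 °C. Each TEVp single-site mutant (parent TEVp 0) is paired with a single-site variant of the 7-mer TEVs (canonical ENLYFQ|S). The substrate sits between flexible linkers in a Bxb1-sfGFP-TEVs-SsrA fusion, so cleavage stabilises Bxb1 and speeds flipping of a recombination array, read by NGS. The value is the raw area under the fraction-flipped curve over 0-4 h after rhamnose induction (AUC4h), with ≥20 reads per time point. It is not background-subtracted; inactive controls average about 0.047.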
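Further: Bxb1 expression induced with 0.2% (w/v) L-rhamnose at OD600 near 0.5, cultures sampled hourly, flipped fraction per protease–substrate barcode pair counted by paired-end Illumina sequencing.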

For MGESLFKGPRDYNPISSSICHLTNESDGHTTSLYGIGFGPFIITNKHLFRRNNGTLVVQSLHGVFKVKDTTTLQQHLVDGRDMIIIRMPKDFPPFPQKLKFREPQREERICLVTTNFQTKTMSSMVSDTSCTFPSGDGIFWKHWIQTKDGQCGSPLVSTRDGFIVGIHSASNFTNTNNYFTSVPKNFMELLTNQEAQQWVSGWRLNADSVLWGGHKVFMVKPEEPFQPVKEATQL [S121T], the “area with substrate ENLCFQS” value amounted to 0.0531, the “area with substrate ENLDFQS” value worked out at 0.0405, the “area with substrate ENLFFQS” value turned out to be 0.0918 and the “area with substrate ENLHFQS” value is 0.0755. Also, the “area with substrate ENLVFQS” value came to 0.0954 and the “area with substrate ENLWFQS” value was 0.0811.

Take MGESLFKGPRDYNPISSSICHLTNESDGHTTSLYGIGFGPFIITNKHLFRRNNGTLVVQSLHGVFKVKDTTTLQQHLVDGRDMIIIRMPKDFPPFPQKLKFREPQREERICLVTTNFQTKSMSSMVSDTSCTFPSGDGIFWKHGIQTKDGQCGSPLVSTRDGFIVGIHSASNFTNTNNYFTSVPKNFMELLTNQEAQQWVSGWRLNADSVLWGGHKVFMVKPEEPFQPVKEATQL [W144G]: the “area with substrate ENLCFQS” value stood at 0.0691, the “area with substrate ENLDFQS” value was determined as 0.0561, the “area with substrate ENLEFQS” value amounted to 0.0764 and the “area with substrate ENLHFQS” value turned out to be 0.0693. Further, the “area with substrate ENLKFQS” value is 0.0982, the “area with substrate ENLLFQS” value came out at 0.0589, the “area with substrate ENLNFQS” value came out at 0.0578 and the “area with substrate ENLQFQS” value turned out to be 0.0573. For the same variant, the “area with substrate ENLVFQS” value was found to be 0.068 and the “area with substrate ENLWFQS” value is 0.0645.

In the case of MGESLFKGPRDYNPISSSICHLTNESDGHTTSLYGIGFGPFIITNKHLFRRNNGTLVVQSLHGVFKVKDTTTLQQHLVDGRDMIIIRMPKDFPPFPQKLKFREPQREERICLVTTNFQTKSMSSMVSDTSCTFPSGDGIFWKHWIQTKDGQCGSPLVSTRDGFINGIHSASNFTNTNNYFTSVPKNFMELLTNQEAQQWVSGWRLNADSVLWGGHKVFMVKPEEPFQPVKEATQL [V165N], the “area with substrate ENLCFQS” value was 0.0486, the “area with substrate ENLDFQS” value came out at 0.0563, the “area with substrate ENLFFQS” value is 0.072 and the “area with substrate ENLKFQS” value was 0.0335. For the same variant, the “area with substrate ENLLFQS” value came to 0.0566, the “area with substrate ENLMFQS” value came to 0.0493, the “area with substrate ENLNFQS” value turned out to be 0.0571 and the “area with substrate ENLPFQS” value was 0.0344. Moreover, the “area with substrate ENLRFQS” value was determined as 0.0502 and the “area with substrate ENLTFQS” value was 0.0631.

Take MGESLFKGPRDYNPISSSICHLTNESDGHTTSLYGIGFGPFIITNKHLFRRNNGTLVVQSLHGVFKVKDTTTLQQHLVDGRDMIIIRMPKDFPPFPQKLKFREPQREERICLVTTNFQTKSMSSMVSDTSCTFPSGDGIFWKHWIQTKDGQCGSPLVSTRDGFIVGIPSASNFTNTNNYFTSVPKNFMELLTNQEAQQWVSGWRLNADSVLWGGHKVFMVKPEEPFQPVKEATQL [H168P]: the “area with substrate ENLCFQS” value stood at 0.0409, the “area with substrate ENLDFQS” value stood at 0.0552, the “area with substrate ENLEFQS” value amounted to 0.0613 and the “area with substrate ENLFFQS” value was 0.0775. Also, the “area with substrate ENLHFQS” value turned out to be 0.0761, the “area with substrate ENLIFQS” value was 0.053, the “area with substrate ENLLFQS” value was found to be 0.0805 and the “area with substrate ENLSFQS” value amounted to 0.0696.

Consider MGESLFKGPRDYNPISSSICHLTNESDGHTTSLYGIGFGPFIITNKHLFRRNNGTLVVQSLHGVFKVKDTTTLQQHLVDGRDMIIIRMPKDFPPFPQKLKFREPQREERICLVTTNFQTNSMSSMVSDTSCTFPSGDGIFWKHWIQTKDGQCGSPLVSTRDGFIVGIHSASNFTNTNNYFTSVPKNFMELLTNQEAQQWVSGWRLNADSVLWGGHKVFMVKPEEPFQPVKEATQL [K120N], for which the “area with substrate ENLCFQS” value was determined as 0.0495, the “area with substrate ENLEFQS” value was 0.0689, the “area with substrate ENLFFQS” value amounted to 0.0772 and the “area with substrate ENLHFQS” value was 0.0807. The “area with substrate ENLIFQS” value was 0.0318, the “area with substrate ENLKFQS” value came to 0.0766 and the “area with substrate ENLVFQS” value was determined as 0.0437.

Turning to MGESLFKGPRDYNPISSSICHLTNESDGHTTSLYGIGFGPFIITNKHLFRRNNGTLVVQSLHGVFKVKDTTTLQQHLVDGRDMIIIRMPKDFPPFPQKLKFREPQREERICLVTTNFQTESMSSMVSDTSCTFPSGDGIFWKHWIQTKDGQCGSPLVSTRDGFIVGIHSASNFTNTNNYFTSVPKNFMELLTNQEAQQWVSGWRLNADSVLWGGHKVFMVKPEEPFQPVKEATQL [K120E], the “area with substrate ENLCFQS” value amounted to 0.0735, the “area with substrate ENLDFQS” value worked out at 0.082, the “area with substrate ENLGFQS” value came out at 0.0688 and the “area with substrate ENLHFQS” value came to 0.0687. Further, the “area with substrate ENLKFQS” value came out at 0.0753, the “area with substrate ENLNFQS” value came to 0.0773, the “area with substrate ENLPFQS” value is 0.0653 and the “area with substrate ENLRFQS” value amounted to 0.0672. In addition, the “area with substrate ENLSFQS” value was 0.0779, the “area with substrate ENLTFQS” value was 0.0709, the “area with substrate ENLVFQS” value stood at 0.0848 and the “area with substrate ENLWFQS” value is 0.0671.

With MGESLFKGPRDYNPISSSICHLTNESDGHTTSLYGIGFGPFIITNKHLFRRNNGTLVVQSLHGVFKVKDTTTLQQHLVDGRDMIIIRMPKDFPPFPQKLKFREPQREERICLVTTNFQTDSMSSMVSDTSCTFPSGDGIFWKHWIQTKDGQCGSPLVSTRDGFIVGIHSASNFTNTNNYFTSVPKNFMELLTNQEAQQWVSGWRLNADSVLWGGHKVFMVKPEEPFQPVKEATQL [K120D], the “area with substrate ENLCFQS” value amounted to 0.0844, the “area with substrate ENLDFQS” value worked out at 0.0562, the “area with substrate ENLEFQS” value was 0.0646 and the “area with substrate ENLGFQS” value came out at 0.0804. Besides, the “area with substrate ENLIFQS” value turned out to be 0.0951, the “area with substrate ENLKFQS” value came to 0.0643, the “area with substrate ENLLFQS” value is 0.0665 and the “area with substrate ENLNFQS” value came to 0.0581. For the same variant, the “area with substrate ENLPFQS” value worked out at 0.0691 and the “area with substrate ENLSFQS” value worked out at 0.0734.

For the variant MGESLFKGPRDYNPISSSICHLTNESDGHTTSLYGIGFGPFIITNKHLFRRNNGTLVVQSLHGVFKVKDTTTLQQHLVDGRDMIIIRMPKDFPPFPQKLKFREPQREERICLVTTNFQTKSMSSMVSDTSCTFPSGDGIFWKHWRQTKDGQCGSPLVSTRDGFIVGIHSASNFTNTNNYFTSVPKNFMELLTNQEAQQWVSGWRLNADSVLWGGHKVFMVKPEEPFQPVKEATQL [I145R], the “area with substrate ENLCFQS” value is 0.0517, the “area with substrate ENLDFQS” value came out at 0.0663, the “area with substrate ENLEFQS” value was found to be 0.07 and the “area with substrate ENLFFQS” value was found to be 0.0494. Besides, the “area with substrate ENLHFQS” value turned out to be 0.0588, the “area with substrate ENLMFQS” value came out at 0.061, the “area with substrate ENLNFQS” value came to 0.0741 and the “area with substrate ENLRFQS” value is 0.0782. In addition, the “area with substrate ENLSFQS” value is 0.0325.

As for MGESLFKGPRDYNPISSSICHLTNESDGHTTSLYGIGFGPFIITNKHLFRRNNGTLVVQSLHGVFKVKDTTTLQQHLVDGRDMIIIRMPKDFPPFPQKLKFREPQREERICLVTTNFQTKSMSSMVSDTSCTFPSGDGIFWKHWIQTKDGQCGSPLVSTRDGFIVGIHSASNFTNENNYFTSVPKNFMELLTNQEAQQWVSGWRLNADSVLWGGHKVFMVKPEEPFQPVKEATQL [T176E], the “area with substrate ENLCFQS” value was 0.0737, the “area with substrate ENLDFQS” value is 0.0669, the “area with substrate ENLEFQS” value is 0.0796 and the “area with substrate ENLFFQS” value came out at 0.0696. Moreover, the “area with substrate ENLHFQS” value came out at 0.0415, the “area with substrate ENLIFQS” value is 0.0667, the “area with substrate ENLKFQS” value is 0.0717 and the “area with substrate ENLLFQS” value worked out at 0.0621. The “area with substrate ENLNFQS” value came to 0.0577, the “area with substrate ENLPFQS” value amounted to 0.0621, the “area with substrate ENLSFQS” value was determined as 0.0721 and the “area with substrate ENLVFQS” value was determined as 0.0645. Further, the “area with substrate ENLWFQS” value amounted to 0.071.

As to MGESLFKGPRDYNPISSSICHLTNESDGHTTSLYGIGFGPFIITNKHLFRRNNGTLVVQSLHGVFKVKDTTTLQQHLVDGRDMIIIRMPKDFPPFPQKLKFREPQREERICLVTTNFQTKSMSSMVSDTSCTFPSGDGIFWKHWIQTKDGQCGSQLVSTRDGFIVGIHSASNFTNTNNYFTSVPKNFMELLTNQEAQQWVSGWRLNADSVLWGGHKVFMVKPEEPFQPVKEATQL [P155Q], the “area with substrate ENLCFQS” value was found to be 0.0586, the “area with substrate ENLDFQS” value was 0.0587, the “area with substrate ENLEFQS” value amounted to 0.0552 and the “area with substrate ENLFFQS” value amounted to 0.0693. Further, the “area with substrate ENLGFQS” value was 0.0615, the “area with substrate ENLHFQS” value amounted to 0.059, the “area with substrate ENLIFQS” value turned out to be 0.0495 and the “area with substrate ENLKFQS” value was 0.0583. Further, the “area with substrate ENLLFQS” value was 0.0508, the “area with substrate ENLMFQS” value was determined as 0.0526, the “area with substrate ENLNFQS” value worked out at 0.0542 and the “area with substrate ENLPFQS” value worked out at 0.0485. In addition, the “area with substrate ENLQFQS” value was 0.0604, the “area with substrate ENLRFQS” value was determined as 0.0549, the “area with substrate ENLSFQS” value was found to be 0.0428 and the “area with substrate ENLTFQS” value worked out at 0.0519. Also, the “area with substrate ENLVFQS” value was determined as 0.0659 and the “area with substrate ENLWFQS” value is 0.0557.
